About 2,200 (0.71%) of roughly 310,000 compounds showed an effect of 50% or more. Effects have a minus sign here. The list shows a part of the results.
What follows are compounds tested against human ether-à-go-go-related gene (hERG) potassium channel (human, UniProt Q12809) (assay: primary screen, population patch clamp on CHO cells stably expressing hERG).
Sequence of human ether-à-go-go-related gene (hERG) potassium channel (Q12809 whole entry, looked up): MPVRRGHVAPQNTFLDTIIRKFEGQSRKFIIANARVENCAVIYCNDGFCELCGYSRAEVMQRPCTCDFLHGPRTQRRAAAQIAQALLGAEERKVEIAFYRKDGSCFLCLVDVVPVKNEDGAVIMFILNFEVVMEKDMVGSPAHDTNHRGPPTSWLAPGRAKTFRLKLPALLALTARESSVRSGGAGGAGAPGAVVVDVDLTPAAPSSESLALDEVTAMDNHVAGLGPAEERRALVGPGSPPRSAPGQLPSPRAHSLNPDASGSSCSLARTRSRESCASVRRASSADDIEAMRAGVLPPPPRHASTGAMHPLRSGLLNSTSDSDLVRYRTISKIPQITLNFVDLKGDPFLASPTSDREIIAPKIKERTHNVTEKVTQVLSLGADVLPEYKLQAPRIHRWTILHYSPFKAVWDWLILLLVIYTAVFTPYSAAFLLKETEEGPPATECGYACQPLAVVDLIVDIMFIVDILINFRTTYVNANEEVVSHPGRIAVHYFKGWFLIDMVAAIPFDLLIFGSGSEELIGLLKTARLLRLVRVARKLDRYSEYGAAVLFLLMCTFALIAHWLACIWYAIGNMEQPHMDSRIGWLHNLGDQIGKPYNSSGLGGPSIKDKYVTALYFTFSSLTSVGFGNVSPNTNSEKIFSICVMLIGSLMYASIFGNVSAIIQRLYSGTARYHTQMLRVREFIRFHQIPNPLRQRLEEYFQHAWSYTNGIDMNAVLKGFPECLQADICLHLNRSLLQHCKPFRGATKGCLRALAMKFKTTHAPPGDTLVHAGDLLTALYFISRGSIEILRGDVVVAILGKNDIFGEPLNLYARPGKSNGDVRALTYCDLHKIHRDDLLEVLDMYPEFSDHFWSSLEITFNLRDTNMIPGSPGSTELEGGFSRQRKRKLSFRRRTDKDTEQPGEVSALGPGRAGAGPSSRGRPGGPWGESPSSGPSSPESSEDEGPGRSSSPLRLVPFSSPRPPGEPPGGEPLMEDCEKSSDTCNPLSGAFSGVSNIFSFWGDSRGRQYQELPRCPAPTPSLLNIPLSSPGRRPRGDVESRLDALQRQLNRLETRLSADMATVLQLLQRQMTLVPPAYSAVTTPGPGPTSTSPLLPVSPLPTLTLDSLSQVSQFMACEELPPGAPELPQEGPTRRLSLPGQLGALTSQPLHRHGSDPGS
With `COc1cccc(CCNC(=O)c2ccc(C#N)cc2)c1` the “hERG current change (%, negative = inhibition) at 1uM” value was 8.19%.
`CN(C(=O)c1cccc(NC(=O)c2ccccc2)c1)C1CCCCC1` was tested, and the “hERG current change (%, negative = inhibition) at 1uM” value was 5.36%.
For `Cc1ccc2nc(N3CCN(C)CC3)c(C=O)c(=O)n2c1`, the “hERG current change (%, negative = inhibition) at 1uM” value was 2.08%.
With `COc1ccccc1NS(=O)(=O)c1cccc(C(=O)NCc2ccco2)c1` the “hERG current change (%, negative = inhibition) at 1uM” value was 8.36%.
In the case of `CN1CCN(C(=O)/C=C/c2ccc(C#N)cc2)CC1`, the “hERG current change (%, negative = inhibition) at 1uM” value is reported as -12%.
`CCc1cc(=O)oc2cc(OS(C)(=O)=O)ccc12` was tested, and the “hERG current change (%, negative = inhibition) at 1uM” value was 4.93%.
For `O=C(CSc1nc2ncc(Cl)cc2[nH]1)Nc1ccccc1-c1ccccc1`, the “hERG current change (%, negative = inhibition) at 1uM” value was 15%.
In the case of `COc1ccc(NC(=O)CC2C(=O)N(Cc3cccs3)C(=S)N2C(C)C)cc1` (stereo not shown), the “hERG current change (%, negative = inhibition) at 1uM” value is reported as 8.74%.
In the case of `OCCC1CN(Cc2ccncc2)CCN1C1CCCC1` (stereo not shown), the “hERG current change (%, negative = inhibition) at 1uM” value is reported as 10.6%.
In the case of `CC1CC(C)CN(CCCNC(=O)c2ccc(CS(=O)(=O)Cc3cccc(Cl)c3)o2)C1` (stereo not shown), the “hERG current change (%, negative = inhibition) at 1uM” value is reported as -33.9%.
`COc1ccc(C)cc1NC(=O)c1cccc(C(=O)Nc2cc(C)ccc2OC)n1` was tested, and the “hERG current change (%, negative = inhibition) at 1uM” value was -0.189%.
With `COc1cc(CNn2cn[nH]c2=S)cc(Cl)c1OCc1ccc(F)cc1` the “hERG current change (%, negative = inhibition) at 1uM” value was 3.52%.
For `COc1ccc(-n2nc(C)c3c(=O)c4c([nH]c32)CCCC4)cc1`, the “hERG current change (%, negative = inhibition) at 1uM” value was 12.4%.
For `CC(=O)NC(C)Cc1cn(Cc2ccccc2)c2ccccc12` (stereo not shown), the “hERG current change (%, negative = inhibition) at 1uM” value was 17.7%.
`CCN(CC)S(=O)(=O)c1ccc(-c2nnc(SCC(=O)Nc3ccc(OC)c(OC)c3)o2)cc1` was tested, and the “hERG current change (%, negative = inhibition) at 1uM” value was 4.51%.
`CCN1CCN(Cc2ccc(NC(=O)c3ccc(C)c(NC(=O)N4CCNC4=O)c3)cc2C(F)(F)F)CC1.O=C(O)C(F)(F)F` was tested, and the “hERG current change (%, negative = inhibition) at 1uM” value was 6.44%.
With `COc1c(S(=O)(=O)NCCCN2CCOCC2)ccc(Cl)c1Cl` the “hERG current change (%, negative = inhibition) at 1uM” value was 9.39%.
For `CC(C)CC(c1nnnn1C(C)(C)C)N1CCN(C2CCCC2)CC1.Cl` (stereo not shown), the “hERG current change (%, negative = inhibition) at 1uM” value was 6.21%.
With `Cc1nn(CC(=O)Nc2sc3c(c2C#N)CCC(C(C)(C)C)C3)c(C)c1[N+](=O)[O-]` (stereo not shown) the “hERG current change (%, negative = inhibition) at 1uM” value was 5.57%.
For `N#C/C(=C\C1=C(N2CCOCC2)C(=C\c2ccc(Cl)cc2)/CC1)C(=O)Nc1ccccc1F`, the “hERG current change (%, negative = inhibition) at 1uM” value was 8.26%.
In the case of `CCOCCn1cnc2sc(C(=O)NCCCN3CCOCC3)c(C)c2c1=O`, the “hERG current change (%, negative = inhibition) at 1uM” value is reported as 14%.
In the case of `CC(=O)Nc1ccc(NC(=S)NC(=O)C2CC2)cc1`, the “hERG current change (%, negative = inhibition) at 1uM” value is reported as 15.5%.
In the case of `O=S(=O)(Nc1cccc(-c2ccc(N3CCOCC3)nn2)c1)c1cc(Cl)ccc1Cl`, the “hERG current change (%, negative = inhibition) at 1uM” value is reported as -2.41%.
`Cn1cc(C(c2ccccn2)c2cn(C)c3ccccc23)c2ccccc21` was tested, and the “hERG current change (%, negative = inhibition) at 1uM” value was 12.5%.
For `O=S(=O)(c1ccc(=S)[nH]c1)N1CCOCC1`, the “hERG current change (%, negative = inhibition) at 1uM” value was 7.56%.
In the case of `Cc1ccc(NC(=O)c2cc(C)nc3ccccc23)c(Br)c1`, the “hERG current change (%, negative = inhibition) at 1uM” value is reported as 8.32%.
`CC(C)(C)NS(=O)(=O)c1ccc(-c2csnn2)s1` was tested, and the “hERG current change (%, negative = inhibition) at 1uM” value was 1.9%.
In the case of `Br.CCOc1ccccc1OCC(=O)NN1Cc2ccccc2C1=N`, the “hERG current change (%, negative = inhibition) at 1uM” value is reported as -45.1%.
`COC(=O)CC1COc2ccccc2N1C(=O)c1cccc(C(F)(F)F)c1` (stereo not shown) was tested, and the “hERG current change (%, negative = inhibition) at 1uM” value was 16.3%.
In the case of `CC1N=C(c2ccccc2)c2cc(Br)ccc2NC1=O` (stereo not shown), the “hERG current change (%, negative = inhibition) at 1uM” value is reported as -3.63%.
With `CCOC(=O)c1ccc(N2CCN(C(C)=O)CC2)c(NC(=O)c2cccnc2)c1` the “hERG current change (%, negative = inhibition) at 1uM” value was 10%.
With `CC(=O)N1N=C(c2ccncc2)OC12CCCCC2` the “hERG current change (%, negative = inhibition) at 1uM” value was 7.83%.
In the case of `Cc1ccc(S(=O)(=O)c2c[nH]c3cc4c(cc3c2=O)OCO4)cc1`, the “hERG current change (%, negative = inhibition) at 1uM” value is reported as 9.83%.
For `Cc1ccc(-n2c(C)cc(C(=O)COC(=O)c3ccc[nH]c3=O)c2C)cc1C`, the “hERG current change (%, negative = inhibition) at 1uM” value was 12.5%.
With `CCCCCn1c(Sc2ncccn2)nc2c1c(=O)[nH]c(=O)n2C` the “hERG current change (%, negative = inhibition) at 1uM” value was 4.65%.
For `COc1ccc(N(C(=O)CNC(=O)c2ccco2)C(C(=O)NC2CCCC2)c2ccc(C)o2)cc1` (stereo not shown), the “hERG current change (%, negative = inhibition) at 1uM” value was 8.92%.
With `CN(CC(=O)Nc1cccnc1)S(=O)(=O)c1ccc(Br)cc1` the “hERG current change (%, negative = inhibition) at 1uM” value was 3.03%.
In the case of `COc1ccc(N(CC(=O)Nc2cccc(N(C)S(C)(=O)=O)c2)S(=O)(=O)c2ccc(C)cc2)cc1`, the “hERG current change (%, negative = inhibition) at 1uM” value is reported as 17.3%.
`O=C(O)c1ccc2c(c1)C(=O)N(Cc1ccc3c(c1)OCO3)C2=O` was tested, and the “hERG current change (%, negative = inhibition) at 1uM” value was 1.76%.
`CCOc1cccc(C(=O)Nc2ccc3oc(Cc4ccc(Cl)cc4)nc3c2)c1` was tested, and the “hERG current change (%, negative = inhibition) at 1uM” value was 4.26%.
For `N=c1c2c3c(sc2nc2n1CCCCC2)CCCCC3`, the “hERG current change (%, negative = inhibition) at 1uM” value was -9.94%.
With `Cn1c(=O)n(C)c2cc(S(=O)(=O)NCCOCCO)ccc21` the “hERG current change (%, negative = inhibition) at 1uM” value was 8.12%.
`COc1ccccc1N1CCN(Cc2ccc3c(c2)OCO3)CC1` was tested, and the “hERG current change (%, negative = inhibition) at 1uM” value was 2.73%.
